According to the supplement of paper PMC3724861:
The list shows a part of the results.

test system: T1, Caupolican (Caup) homeodomain DNA-binding domain; assay: PBM E-score (8-mer, recovered from the published 9-mer minima) (E-score (dimensionless, -0.5 to 0.5)); Drosophila protein; higher = stronger relative binding preference, active = 0.31 or more
T1 sequence: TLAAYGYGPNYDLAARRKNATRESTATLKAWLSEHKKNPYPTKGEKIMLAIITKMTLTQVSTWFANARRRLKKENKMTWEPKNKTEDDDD
Procedure, shortened: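 Caup's homeodomain DNA-binding domain (residues 214-303) was made by in vitro transcription and translation and applied at 100 nM to custom-designed protein binding microarrays. Each value is an enrichment score that gives relative binding preference for a short DNA word, with higher meaning stronger. The 8-mer values were recovered from published 9-mer scores, each of which was the minimum of its two constituent 8-mer scores. A cutoff of 0.31 marks candidate sites.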

PBM E-score, active:
CTACATGC 0.369
AGCGTGTA 0.355
ACATAATA 0.323

PBM E-score, ≥ -0.0983:
AGGGCTCA

PBM E-score, ≥ 0.107:
AATTCAGA

PBM E-score, ≥ -0.0226:
ACTGGCCA

PBM E-score, ≥ 0.277:
AACACAGT

PBM E-score, ≥ 0.0935:
GGAATTCA

PBM E-score, inactive:
ACAATAGT 0.206
AAGAATAA 0.129
ACATCGGC 0.134
GCATTCAC -0.00731
GCAAAGAC -0.0679
AAACTTCG -0.0286
AACAGACG 0.0277
AATGCCAC -0.119
CCAGACGA -0.0846
ATCTGGCA -0.0652
ACGGCAAG -0.0241
ACTTGGAA -0.0157
AAGGAGCT -0.12
GTCGTATA 0.165
ACCAGAGC -0.0284
AAGAATAG 0.0169
AATGGAAC 0.0496
CGAAAGCG -0.0814
GCGACCCC -0.269
ACTTGGCG -0.128
AGTTGGTA 0.132
AACTCAAG 0.0468
AGGGCTCC -0.298
CCTTGTCG 0.277
ATCTCATG 0.127
GGGACATA 0.113
GGCACGAA -0.0704
ACTGGAGC -0.152
CGTCGTAC 0.177
CGACAAAC 0.141
CAGATCTG 0.026
AATTAAGT 0.129
CAATGCTG -0.0134
GGAGTACA 0.194
CTTGGCAA -0.0287
CACGGGGG -0.25
TGACCTCA -0.0931
CAAAAGCG -0.0894
ACAAAACT 0.184
ACAGTGTG 0.0332
AATCTAGG 0.0382
CCTCAATC 0.0037
GTGGGTGA -0.113
GAAACCGA -0.0482
ACTGATGA 0.122
GAATAGAC 0.0519
GTTGATCA 0.19
CCAAAAGG -0.148
CTGATCAA 0.0558
CATCGGAG -0.0367
CTGCAAGC -0.102
CCAGCAGA -0.105
GTACCCTA 0.0117
AACGTCTT 0.0218
GCATCAGA 0.121
AAATTAAA 0.131
GTCTCCGA -0.0444
ACGAAACA 0.188
AATCTGCC -0.0243
GTCTGCCA -0.0852
TATAAACA 0.308
CGCTGACG -0.118
TATGTGCA 0.151
AAGGCGCT -0.0654
CGCTGCAA -0.0648
CAGTTTGA 0.097
GCCGCTCC -0.255
CCCCGGAG -0.246
GTCACAAA 0.124
AATTCTCT -0.117
CGCTCAAA -0.0531
CACTGACG -0.0888
GATAATTA 0.158
AACTGCTG -0.0391
AGAGGGTA -0.0861
AAATAGGA 0.0505
CGCAGCCG -0.267
CCGTTCTC -0.0675
ATCCAATA 0.182
AGCTACCG -0.148
AGTGTACG 0.152
ACGCCACT -0.0388
CAGAACTA 0.051
CCCAACCC -0.138
TAAGCGGA -0.0236
CGTTAGCC -0.0828
TACTCTCA 0.0596
CGAAGCGC -0.16
GAAAGGAC 0.00953
GTTGAGCA 0.0452
GACAGCTC -0.0794
GATTGTGA 0.0839
ATAGTTAA 0.158
CGCCGGTC -0.248
CCGAGCCC -0.26
TGGTCTAA -0.0361
CTACTGTA 0.182
CCCTACCA -0.0656
AGTTTGCC -0.0319
AAAATTGA -0.0569
CGAAAGGC -0.147
GCGGCAGA -0.239
GACAGGCC 0.0111
CGAAGGCG -0.203
GTGTCATA 0.292
AGAGGACA 0.114
ATCTAACC 0.102
CCCAACGG -0.185
AACCGCAT 0.0384
ATCGCGAC 0.00275
AGTTCGCA -0.0631
ACCCGTTC -0.0179
AAGCCACC -0.185
CCTGAGAG -0.199
ATGACAAA 0.248
CGAGCTAG -0.12
CGTTTAAC 0.111
ACTAAACT 0.0396
AATTGGCT -0.0217
GCATTAGA 0.0301
CCCTGCAC -0.0942
GCGCCGAC -0.199
AACTTGAC 0.11
CTACGGAA -0.0238
CGGAGCTA -0.128
AGGTGGCA -0.141
CCGGTGAA -0.0774
TATGCCAA 0.0609
AGTGGAGC -0.0581
ATAAATCA 0.121
AAAGCCTC -0.0904
AAGGTCGT -0.0388
AGGGAGTC -0.0759
GATACCGA 0.0217
GAGAGTAC 0.0707
GGATACCA 0.0236
TCCCATAA 0.0278
TACCTCGA 0.0358
CAGTAACG -0.0444
GCAGAGGA -0.0494
ACAGTGGC -0.0915
GGGCTGGA -0.213
CGTTCAAG -0.0687
AAACTCGC -0.0492
AGCCCCAC -0.21
AAGAGATC -0.00653
CATCTACG 0.0585
AGGTGCTC -0.109
ATTTACCA 0.151
ACAGTTGC 0.0312
CCGCTTCC -0.172
CCACTTAA -0.0517
GCCGCCAC -0.268
AACCGGAG -0.0752
CTGCAAAG -0.169
GGGGAGCA -0.143
AGCATCCA -0.0364
GCAAATCC 0.00535
ATGGTTAG 0.134
CTCCACAC -0.111
CTATCCTA -0.0751
CGGTAATC 0.00406
CGGCAACG -0.192
GGCTAGAC -0.11
CTGAAGTA -0.0424
ACAACGTG 0.273
CAGCTAAG -0.116
CTGCCCAG -0.259
CCAGTTAG -0.0607
CTGCTTAA -0.0935
ATTTGGCA -0.00352
GAGACTCA -0.0625
CCACCGCC -0.244
CTCGAACA 0.166
CAATTGAC 0.115
AGTTCTAC 0.0527
ACCGACCG -0.0972
CCGTAGCC -0.222
ACTTACTG 0.0395
CCATTGCA 0.0848
ATTTCTTC -0.0192
AGGGGCTG -0.105
ACTCATGG 0.0295
GCCTGTTA 0.159
GGCAACCA -0.0801
AGATGAAG -0.0735
TGTGCCAA 0.0559
GCCAAACA 0.122
GCCGCACC -0.211
CCTGACAG 0.0999
CACAATAA 0.0841
CCAAGCTC -0.0725
CAGTATTC 0.0649
CAATCGGC -0.0316
ACAAATTC 0.178
AGTCAACT 0.063
CTAGTGCA -0.031
CTGTACGC 0.037
GCCGAAAA -0.0104
CTCCCGTC -0.0757
ACAGTACT 0.18
AATCGGGA 0.00503
CTATCGAC -0.0977
GCAAAGCA -0.0364
GCTCGGCC -0.274
AAATACCC -0.0207
TATGGCAA -0.0466
GACGGCTC -0.149
CTGGAGCA -0.058
CCTATCTC -0.132
CTTCTGCC -0.138
GTTTGGCA -0.0334
AAGGTTTG 0.0466
AGCGACAA 0.228
